Data on 86 sequences can be found in the supplement of paper PMC3334620.

Whole data set: some 33,000 sequences, median “E-score (-0.5 to 0.5)” near -0.016, cut for the highest 2% near 0.32. The list shows a part of the results.

This experiment concerns the target T1, Stp1 (UniProt B3LFK1).
T1 sequence: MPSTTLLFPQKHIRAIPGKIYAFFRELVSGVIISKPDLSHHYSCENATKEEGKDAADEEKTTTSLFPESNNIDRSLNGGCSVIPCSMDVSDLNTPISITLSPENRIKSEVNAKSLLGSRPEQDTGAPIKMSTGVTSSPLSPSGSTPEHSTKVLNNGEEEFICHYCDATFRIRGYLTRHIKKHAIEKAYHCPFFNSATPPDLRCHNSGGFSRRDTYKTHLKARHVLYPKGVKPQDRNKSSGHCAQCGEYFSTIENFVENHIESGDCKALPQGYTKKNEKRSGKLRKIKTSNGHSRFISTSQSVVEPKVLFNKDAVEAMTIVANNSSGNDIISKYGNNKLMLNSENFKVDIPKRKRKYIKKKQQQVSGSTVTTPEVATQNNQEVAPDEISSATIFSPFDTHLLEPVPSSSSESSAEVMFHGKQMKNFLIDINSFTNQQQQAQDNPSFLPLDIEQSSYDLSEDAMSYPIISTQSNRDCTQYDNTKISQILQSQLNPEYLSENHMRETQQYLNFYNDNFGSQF
Kind of experiment: PBM E-score (8-mer binding enrichment) (E-score (-0.5 to 0.5)); higher = stronger / more preferred TF binding; most listed sequences are background and not binding sites. As to conditions: protein concentration: 200 nM; construct: GST-full length. An outline of the steps: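 Using PURExpress in vitro transcription/translation, GST-tagged yeast transcription factors were made in full-length or DNA-binding-domain form. These were applied at about 100-200 nM to double-stranded universal all-10-mer Agilent arrays, and bound protein was detected with fluorescent anti-GST. Scans were normalised with masliner before the Universal PBM Analysis Suite assigned E-scores to ungapped eight-base words pooled with their reverse complements.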
Take CAAGGTCC: the “PBM E-score” value was -0.184. The result for AGCTTTCG reads -0.168; that for ACCAACGA, -0.0672; that for GTCACCAC, -0.104. In the case of ATTCTCGG, the “PBM E-score” value came out at 0.181. To CTTTGGAC belongs 0.179; to CAAGCCTA, 0.0446; to TACATTGA, 0.0408. To AGTTCGGC belongs 0.0626. The result for TATGAGGA reads -0.0663; that for ACTAAGAA, 0.0736; that for AGGAACAA, -0.114. For GTAACCCA, the “PBM E-score” value was 0.235. The result for AGACTTAG reads -0.269. To ACGACACG belongs 0.0496. The result for ACGTTACG reads 0.0858. As to TATCCCAA, the “PBM E-score” value was determined as 0.0205. The result for AGGTATCA reads -0.027; that for ATCTATCC, 0.0113.

With ATTGTAGC, the “PBM E-score” value was determined as 0.0881. To CATATCAC belongs 0.0345. The result for ACGCTTAC reads -0.0802; that for GGACCAAA, 0.0378. As for ACGAGTCC, the “PBM E-score” value is -0.0144. For the sequence GGCCATAC, the “PBM E-score” value was 0.0794.

As to CCCACTCA, the “PBM E-score” value is -0.115. Turning to CCTAGTTA, the “PBM E-score” value is -0.025. The result for CATCGTAG reads -0.128; that for AAAGCCAG, -0.168; that for AATTCGGG, -0.0912. On to CTGCTATC, for which the “PBM E-score” value was -0.00394. To GGTCTTGA belongs -0.178.

Consider CTGAGGAA, for which the “PBM E-score” value is -0.14.

Regarding AGGGTTAA, the “PBM E-score” value was -0.234. To ACCTGATG belongs -0.102; to AGCAAGTA, -0.00665; to ATAGTATC, 0.259. The result for AATGGACC reads 0.0385; that for ACAACCCG, -0.168.

With GGCCGCTA, the “PBM E-score” value is 0.0203. In the case of ACATTTGC, the “PBM E-score” value is 0.0875. The result for ACAGAATG reads 0.0711. The result for AAAACGCA reads 0.056; that for CTAGGCCA, -0.219.

As to TCTTGAAA, the “PBM E-score” value was found to be 0.0933. As for ATACCCAT, the “PBM E-score” value was -0.0185.

Turning to CTTTGTAC, the “PBM E-score” value was -0.0603. The result for AACACGTG reads 0.224. To ACTGCCAG belongs -0.075; to GGTCTTAA, -0.189. The result for CCCCGTCC reads -0.319; that for AAGCCGCG, 0.418; that for CCGCATGA, 0.203.

For ACGCCATA, the “PBM E-score” value is 0.134. To CCTCTAGC belongs -0.189; to CAGCCAGG, -0.162; to CATGACAA, 0.0222.

For GAGAATAC, the “PBM E-score” value was found to be 0.184.

Turning to CATCCTAA, the “PBM E-score” value is -0.0149.

On to ACACTACT, for which the “PBM E-score” value is -0.00666. Take CGAATCCC: the “PBM E-score” value was -0.0512. To AAATTCAA belongs 0.0716.

On to TGACTTAA, for which the “PBM E-score” value is -0.00308. To ACACAAGC belongs 0.0856; to CATAACAC, 0.0418.

Regarding CACCATAG, the “PBM E-score” value was found to be 0.0197. The result for CCAACCTA reads -0.175.

Turning to AGATGCGG, the “PBM E-score” value worked out at 0.221. To GGCCAAAA belongs 0.117. To GACATTTA belongs -0.0559; to CATCATCA, 0.0728; to AGCACTCA, -0.14.

Regarding CGTACACG, the “PBM E-score” value was 0.0507. The result for AAGGGCGG reads -0.0196.

Consider ACCGTAGA, for which the “PBM E-score” value amounted to 0.0293.

Take GTACTTCA: the “PBM E-score” value was found to be 0.164.

On to AACCACCG, for which the “PBM E-score” value is -0.0618. To ACGCGGAA belongs 0.151. As to CTATCGAA, the “PBM E-score” value is -0.0316. To CAGCTGCG belongs -0.0729. The result for ACGACACC reads -0.0079; that for CATGCAAA, 0.112; that for CATCTCAG, -0.0765. The result for CAAATGGC reads 0.199; that for ACGATGAA, 0.0706. Take ACCCGGTG: the “PBM E-score” value is -0.183.
